Measured values taken from the RNAGym collection of RNA variant scans (doi:10.1093/nar/gkz1192).
The source gives no read counts; variants with many changes may rest on few reads.

B1: CPEB3 Ribozyme (parent)
chain: UAACAGGGGGCCACAGCAGAAGCGUUCACGUCGCAGCCCCUGUCAGAUUCUGGUGAAUCUGCGAAUUCUGCUGUAUAUCUC

Variants of: B1
Assay: self-cleavage, relative activity (ratio to wild type); higher = more cleavage; in vitro, sequencing
Procedure, shortened: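 Relative activity compares each variant's cleaved/total read fraction with that of the unmutated ribozyme. To get these fractions, barcoded CPEB3 ribozyme libraries from rounds of error-prone PCR were transcribed with T7 RNA polymerase for 5 hours at 37°C and then given 15 min of DNase I treatment before EDTA was added. The RNAs were reverse transcribed with template switching and sequenced on Illumina, and DNA sequencing linked barcodes to variants. A minimum of 5 reads applied, and three batches were averaged.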

| Variant | self-cleavage |
| --- | --- |
| U43C U48A A57G A77U | 0.17 |
| U43C U60A U80A | 0.44 |
| U48C U51C A65G | 0.2 |
| A45G U51C U60C | 0.93 |
| A45G U72A U80C | 1.23 |
| C44U A47G A57C G63A U69C | 0.15 |
| U48C U54C U69A | 0.26 |
| A47G U49C U78C | 0.28 |
| U49C G53U U78C | 0.2 |
| A45G U54C C79A | 1.06 |
| U43C U51G A56U U80C | 0.21 |
| C44U A56G U69C U76C | 0.18 |
| A45G A47G U54C U58A A64U A65U | 0.14 |
| U49A U66C U72A | 0.34 |
| A45G G46A U48C A75U | 0.17 |
| A45U G46A U54A A57G A77C C81U | 0.03 |
| U48C U58C A64G U78C | 0.08 |
| U49C G63A C71U | 0.24 |
| U48C U67C U72A U76C | 0.06 |
| U43C A47G U58A | 0.15 |
| A47G U54C U67A | 0.49 |
| A45G G63C C71A U80C | 0.4 |
| A47C U66C U67C | 0.2 |
| A47G U67C A77U | 0.42 |

| Variant | self-cleavage |
| --- | --- |
| U43C U49A U69A | 0.13 |
| C44U A65G U67C | 0.14 |
| A45G U60A U67C | 0.3 |
| A45G A57G U78C | 0.54 |
| A47U A75U A77G | 0.57 |
| U43G C44U U78C | 0.27 |
| U43C A45G U66A U78A | 0.08 |
| A45G U48C U54C U72C | 0.22 |
| U43C A45U U54A A75G | 0.17 |
| U43C U69C U78C | 0.43 |
| A45U U54A U72C C81U | 1.08 |
| U43C C50U U58A U69C U76C | 0.08 |
| U43A U69G U72A | 0.33 |
| A47G A56G U72A | 1.06 |
| U49A U60A U80C | 0.17 |
| A47G U54C A75G | 0.95 |
| A45U A64U U67A | 0.2 |
| U48C U58C C71G | 0.08 |
| U43C A47U G53C C71U U80C | 0.14 |
| A45G U60A U72A | 0.4 |
| A47G U60A A75G | 0.47 |
| A47G U51C A75U U78C | 0.63 |
| U48C G53A U54C U78C | 0.16 |
| A45U A64U U72C | 0.4 |

| Variant | self-cleavage |
| --- | --- |
| A45G C79G U80C C81U | 1 |
| A45C A56G A65U | 0.15 |
| U43C U51G C68A | 0.21 |
| A45C U54G U60C A64G | 0.37 |
| A45C U51C A65G U72C | 0.09 |
| A45U G55U C62U | 0.11 |
| U48C U72C C79A | 0.53 |
| A45G U51A U80C | 0.67 |
| A45U U49A U58A | 0.41 |
| A47G U58A C62U U78C | 0.16 |
| U43C U49C U60C U76A | 0.09 |
| A45U U54C U58A A65G U74A | 0.09 |
| U43C U54C U80A | 0.46 |
| A45G A65U U69C U72C | 0.36 |
| U48C U67C U78C | 0.35 |
| G46A U49C A64G | 0.18 |
| A47U U54A U60A U80C | 0.35 |
| A45G C71U U72A U80C | 0.97 |
| U49A A56U U76A U78A | 1.32 |
| A45G U51C U58A U60C U80C | 0.6 |
| A47G U48C U66C U78A | 0.11 |
| A45G C62G U78A | 0.16 |
| U43G U54C A64G A75C | 0.12 |
| A45U U54C U78A | 0.53 |

| Variant | self-cleavage |
| --- | --- |
| U43C U51A G70U | 0.16 |
| U43A U72C U78C | 1.08 |
| C44U A65U U78C | 0.14 |
| A47G U51A A57C A75G U80A | 0.2 |
| A45U G63A U76G | 0.38 |
| A47U A56G A57G | 0.15 |
| U48C A56G A57G U69A | 0.41 |
| U48C U58C A77U | 0.31 |
| A45G U49A U51C U67C C71U A77G | 0.16 |
| A45U U54C A56U | 0.17 |
| U43C A56G A65G U69C | 0.2 |
| A47G A56G A64U A77U | 0.41 |
| A47G A57C U78A U80A | 0.3 |
| A47G G63C C81U | 0.79 |
| A47G G52A U58A | 0.65 |
| A45G C62U G73A | 0.28 |
| A47G A64G U66C | 0.25 |
| A45C U72C U80C | 0.69 |
| U49C A57G U66G U74C | 0.06 |
| U43C A64G U72C A75U | 0.44 |
| A45G A64G A77U | 0.8 |
| A45G G63U A64G | 0.49 |
| U48C U51G U76C | 0.42 |
| U43C A45U U60C U67C U72C | 0.13 |

| Variant | self-cleavage |
| --- | --- |
| U43A U51A A65U U72A | 0.49 |
| G46A A57U C59A A77U | 0.12 |
| A45G U48C U54G A64U | 0.17 |
| U43C U51C G52U U69A U72C | 0.43 |
| A47G U48C A64G | 0.15 |
| U43A U60C U69C U80C | 0.35 |
| U43C A45U U74A | 0.64 |
| A47U A65G U78C | 0.2 |
| A45U A47G A56G A77C | 0.1 |
| U48C U58C A65G U66C U67A | 0.09 |
| U49C A56G U60A U69A U72A | 0.15 |
| A45C U54C U72A U80C | 0.48 |
| A45U A56G A75U A77U | 0.17 |
| G46C A47U U72C | 0.22 |
| U48C U49C U60A U69A U78C | 0.06 |
| C44A A45G U48A U49C | 0.23 |
| A45G U60C A64U U74A A75C | 0.61 |
| U43A U54C U60C U66C | 0.23 |
| A45G U72C U80C | 1.24 |
| A45C U58C U60C | 0.41 |
| U48A U58C U60C | 0.23 |
| A47G C50A A57U A64U U69C | 0.08 |
| A45U U51C A57G U58C | 0.22 |
| G46A G61C U67C U80C | 0.08 |

| Variant | self-cleavage |
| --- | --- |
| A47G C62U A64G U78A | 0.19 |
| U49C C59A U78G | 0.12 |
| C44G A57G C68A | 0.24 |
| U43C U58C A64G U69C U78C | 0.05 |
| A47G U48C U66A U69A | 0.45 |
| A47G U72C U80A | 1.19 |
| A47G U72C U80C | 1.28 |
| A47U U54A A56G | 0.61 |
| U48C G55U A75G | 0.23 |
| A45G U67A U80A | 0.3 |
| A47U U60C U76A | 0.11 |
| U43A U60A U72C U80C | 0.62 |
| U48C G61C U67C | 0.15 |
| U43G G46A U49C A77G | 0.14 |
| U49C A65G U69A C71U U72C | 0.1 |
| U43C U54A U78C C79G | 0.63 |
| A45G U58C A77U | 0.34 |
| A47G A57G U74A | 1.03 |
| A45U A64G U74C U78C | 0.36 |
| U43G U51A U60C U69C | 0.09 |
| A47G U51A U67C | 0.16 |
| A45G A56G G63A | 0.64 |
| A47G U54A U67C U69C | 0.35 |
| A45G A47G U69C U80C | 0.24 |

| Variant | self-cleavage |
| --- | --- |
| U43C C50U U58A A64G U76C A77G | 0.07 |
| C44A A45G U51G U58C U80A | 0 |
| A47G U49C A57U U58C U67C | 0.14 |
| A45U U60C U66C U72A | 0.16 |
| U48C U60G U72A | 0.15 |
| A45C A56G U60A U76A | 0.4 |
| U48C A64U U67C | 0.47 |
| A45G U51A U60A C81U | 0.78 |
| U43C U54C U60C G73A U80C | 0.25 |
| A47U A64U U66A | 0.07 |
| A45C A56G A64G | 0.43 |
| A45U U54C U60A | 1.07 |
| U43C U54C A65C U67C | 0.07 |
| A45C A47G U54C U78C | 0.45 |
| U49C A56U U76A | 0.79 |
| G46U G61A U69C A77G C79G | 0.17 |
| U43C A64G U76A | 0.54 |
| U43C U54G U78C | 0.33 |
| A47G U51C U72A | 0.94 |
| U49A A64U U67C U80C | 0.2 |
| U48C U54C A57U | 0.26 |
| U48C U54C A57G | 1 |
| A47C A56C U67C | 0.09 |
